The values below come from the supplement of paper PMC5919970.

For this assay, the system named is TYKNU. Description: fractional viability relative to vehicle; TYKNU is a high-grade serous ovarian cancer line; higher = less growth inhibition. The note with it: 72 h, genotype: OPA1 knockout (sgOPA1 #2). The gist of the method: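 TYKNU control cells or lentiCRISPRv2 knockout derivatives were seeded at 500 cells per well into drug-stamped 384-well plates holding a ~2100-compound library at 2 or 10 μM, in duplicate. Cells were grown at 37 °C in 5% CO2 in RPMI 1640 with 10% FBS, and drug treatment lasted 72 h. Viability was read by Cell Titer Glo luminescence. Duplicate treatment wells were averaged and normalised to duplicate control wells from the same plate position.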

Where a name gives a salt, the structure may show the parent alone. Over roughly 2,000 compounds, “fractional viability relative to vehicle” has its median near 0.92; the lowest 2% begin near 0.11. Some of the results follow.

As to `CCN1CC(CCN2CCOCC2)C(c2ccccc2)(c2ccccc2)C1=O` (stereo not drawn) [Doxapram HCl], the fractional viability runs as follows: (2uM) 0.944; (10uM) 0.875.

For the molecule `CN(C)Cc1cccc(N/C(=C2\C(=O)Nc3cc(C(N)=O)ccc32)c2ccccc2)c1`, the fractional viability reads like this: (2uM) 0.93; (10uM) 0.993.

As for `OCc1cc(C(O)CNCCCCCCOCCCCc2ccccc2)ccc1O` (stereo not drawn) [Salmeterol Xinafoate], the fractional viability reads like this: (2uM) 0.922; (10uM) 0.798.

As to `CC(=O)OCC(=O)[C@@]12N=C(C)O[C@@H]1C[C@H]1[C@@H]3CCC4=CC(=O)C=C[C@]4(C)[C@H]3[C@@H](O)C[C@@]12C` [Deflazacort], the fractional viability amounted to 1.14 (2uM) and 1.21 (10uM).

For the molecule `Cn1nccc1Nc1nccc(-c2ccn([C@H](CO)c3ccc(Cl)c(F)c3)c(=O)c2)n1`, the fractional viability stood at 0.635 (2uM) and 0.427 (10uM).

Take `Cc1nc2n(c(=O)c1CCN1CCC(c3noc4cc(F)ccc34)CC1)CCCC2` [Risperidone]: the fractional viability (2uM) came to 0.965 and the fractional viability (10uM) was 0.732.

With `CNCCC(Oc1ccc(C(F)(F)F)cc1)c1ccccc1` (stereo not drawn) [Fluoxetine HCl], the fractional viability was found to be 1.24 (2uM) and 0.774 (10uM).

For `C[C@@H](CN1CC(=O)NC(=O)C1)N1CC(=O)NC(=O)C1` [Dexrazoxane HCl (ICRF-187, ADR-529)], the fractional viability turned out to be 1.03 (2uM) and 1.1 (10uM).

Regarding `O=S(=O)(O)CCS` [Mesna], the fractional viability (2uM) was found to be 1.27 and the fractional viability (10uM) was determined as 1.05.

With `CCCCNC(=O)NS(=O)(=O)c1ccc(C)cc1` [Tolbutamide], the fractional viability is, setting by setting: (2uM) 1.09; (10uM) 0.981.

Take `C[C@@H]1O[C@@H](O[C@H]2[C@H](Oc3cc(O)c(C(=O)CCc4ccc(O)cc4)c(O)c3)O[C@H](CO)[C@@H](O)[C@@H]2O)[C@H](O)[C@H](O)[C@H]1O` [Naringin Dihydrochalcone]: the fractional viability reads like this: (2uM) 1.09; (10uM) 1.02.

For `Cc1cccc(-c2[nH]c(CNc3ccccc3F)nc2-c2ccc3ncnn3c2)n1`, the fractional viability amounted to 0.988 (2uM) and 1.14 (10uM).

On to `O=C(Nc1c(Cl)cncc1Cl)c1ccc(OC(F)F)c(OCC2CC2)c1` [Roflumilast], for which the fractional viability came to 1.12 (2uM) and 1.01 (10uM).

As to `CCOC(=O)OC(C)OC1=C(C(=O)Nc2ccccn2)N(C)S(=O)(=O)c2ccccc21` (stereo not drawn) [Ampiroxicam], the fractional viability is, setting by setting: (2uM) 0.887; (10uM) 0.905.

With `CCCS(=O)(=O)Nc1ccc(F)c(C(=O)c2c[nH]c3ncc(-c4ccc(Cl)cc4)cc23)c1F` [Vemurafenib (PLX4032, RG7204)], the fractional viability is, setting by setting: (2uM) 1.13; (10uM) 1.

Consider `CC1(C)S[C@@H]2[C@H](NC(=O)[C@H](NC(=O)N3CCN(S(C)(=O)=O)C3=O)c3ccccc3)C(=O)N2[C@H]1C(=O)O` [Mezlocillin Sodium], for which the fractional viability reads like this: (2uM) 0.892; (10uM) 0.979.

Turning to `Cn1c(=O)cc(N2CCC[C@@H](N)C2)n(Cc2ccccc2C#N)c1=O` [Alogliptin], the fractional viability was determined as 0.952 (2uM) and 1.08 (10uM).

Turning to `Cc1nnc(C(C)C)n1C1C[C@H]2CC[C@@H](C1)N2CC[C@H](NC(=O)C1CCC(F)(F)CC1)c1ccccc1` (stereo in doubt) [Maraviroc], the fractional viability amounted to 0.954 (2uM) and 1.02 (10uM).

In the case of `CCCCCCCN(CC)CCCC(O)c1ccc(NS(C)(=O)=O)cc1` (stereo not drawn) [Ibutilide Fumarate], the fractional viability reads like this: (2uM) 0.783; (10uM) 0.815.

`COc1ccc(-c2cc(=O)c3c(O)cc(O[C@@H]4O[C@H](CO[C@@H]5O[C@@H](C)[C@H](O)[C@@H](O)[C@H]5O)[C@@H](O)[C@H](O)[C@H]4O)cc3o2)cc1O` [Diosmin]: the fractional viability runs as follows: (2uM) 1.17; (10uM) 1.08.

For the molecule `COc1cc(Nc2ncc(F)c(Nc3ccc4c(n3)N(COP(=O)(O)O)C(=O)C(C)(C)O4)n2)cc(OC)c1OC` [Fostamatinib (R788)], the fractional viability (2uM) amounted to 1.07 and the fractional viability (10uM) is 0.482.

In the case of `CNC(=O)Nc1ccc(-c2nc(N3CC4CCC(C3)O4)c3cnn(C4CCC5(CC4)OCCO5)c3n2)cc1`, the fractional viability was 0.28 (2uM) and 0.361 (10uM).

`COC1=C2C[C@@H](C)C[C@H](OC)[C@H](O)[C@@H](C)/C=C(\C)[C@H](OC(N)=O)[C@@H](OC)/C=C\C=C(/C)C(=O)NC(=CC1=O)C2=O` [Geldanamycin] came in with a fractional viability (2uM) of 0.538 and a fractional viability (10uM) of 0.233.

As for `CN1CC2c3ccccc3Oc3ccc(Cl)cc3C2C1` (stereo not drawn) [Asenapine], the fractional viability was 1.1 (2uM) and 0.902 (10uM).

`CCCCNc1ncc2c(-c3ccc(CN4CCN(C)CC4)cc3)cn([C@H]3CC[C@H](O)CC3)c2n1`: the fractional viability turned out to be 0.615 (2uM) and 0.23 (10uM).

Molecule `c1ccc2[nH]c(-c3cscn3)nc2c1` [Thiabendazole] returned a fractional viability (2uM) of 1.09 and a fractional viability (10uM) of 0.955.

As to `Cn1cc(-c2ccc3nnc(C(F)(F)c4ccc5ncccc5c4)n3n2)cn1`, the fractional viability was 1.08 (2uM) and 1.07 (10uM).

Turning to `CCC(CC)CC1(C(=O)Nc2ccccc2SC(=O)C(C)C)CCCCC1`, the fractional viability is 0.898 (2uM) and 0.927 (10uM).

For the molecule `CCCCCCCCc1ccc(CCC(N)(CO)CO)cc1` [Fingolimod (FTY720) HCl], the fractional viability by setting is: (2uM) 1.08; (10uM) 0.0752.

On to `COc1cc(C(=O)NC2CCCNC2)cc(OC)c1OC` (stereo not drawn) [Troxipide], for which the fractional viability is 0.843 (2uM) and 0.92 (10uM).

For `C[C@]12CC[C@@H]3c4ccc(O)cc4CC[C@H]3[C@@H]1CCC2=O` [Estrone], the fractional viability is 0.955 (2uM) and 0.941 (10uM).

With `CC(C)c1cc(C(=O)N2Cc3ccc(CN4CCN(C)CC4)cc3C2)c(O)cc1O`, the fractional viability reads like this: (2uM) 0.582; (10uM) 0.545.

For `CN1CCC(COc2cnc(-c3cccc(Cn4nc(-c5cccc(C#N)c5)ccc4=O)c3)nc2)CC1`, the fractional viability is, setting by setting: (2uM) 0.78; (10uM) 0.216.

Take `COc1cnc(NS(=O)(=O)c2ccc(N)cc2)nc1` [Sulfameter]: the fractional viability reads like this: (2uM) 0.892; (10uM) 1.16.

On to `O=NN(CCCl)C(=O)NC1CCCCC1` [Lomustine], for which the fractional viability reads like this: (2uM) 1.07; (10uM) 0.74.

Regarding `COc1cc(CCC(C)=O)ccc1O` [Vanillylacetone], the fractional viability came to 1.02 (2uM) and 0.895 (10uM).

On to `COc1cc(Cc2cnc(N)nc2N)cc(OC)c1OC` [Trimethoprim], for which the fractional viability was 0.946 (2uM) and 0.924 (10uM).

Turning to `COc1cc2c(cc1OC)CN(CCc1ccc(NC(=O)c3cc(OC)c(OC)cc3NC(=O)c3cnc4ccccc4c3)cc1)CC2` [Tariquidar], the fractional viability is, setting by setting: (2uM) 0.891; (10uM) 0.459.

With `COc1ccc([C@H]2CNC(=O)C2)cc1OC1CCCC1` [S- (+)-Rolipram], the fractional viability amounted to 1.2 (2uM) and 1.04 (10uM).

For `CNCC[C@H](Oc1cccc2ccccc12)c1cccs1` [Duloxetine HCl], the fractional viability (2uM) worked out at 1.17 and the fractional viability (10uM) turned out to be 1.28.

For `C[C@@H](Oc1cc(-n2cnc3ccc(CN4CCN(C)CC4)cc32)sc1C(N)=O)c1ccccc1C(F)(F)F`, the fractional viability is 0.797 (2uM) and 0.364 (10uM).

With `CC1(COc2ccc3c(c2)ncn3-c2ccc3cccc(N4CCC(N)CC4)c3n2)COC1`, the fractional viability by setting is: (2uM) 1.12; (10uM) 0.135.

As for `COc1ccccc1-c1cc(Nc2cccc(CS(N)(=O)=O)c2)ncn1`, the fractional viability is 0.952 (2uM) and 0.201 (10uM).

`N=C(N)N` [Guanidine HCl]: the fractional viability is 1.17 (2uM) and 0.921 (10uM).
